{
  "source": "PubChem BioAssay (NCATS)",
  "note": "Inconclusive results, whose numbers are uncertain, are shown with a selection of clear calls. Potencies of inconclusive entries are doubtful fits and often do not repeat. The source made the active and inactive calls. Calls follow the shape of the dose curve; as a rule, active = well fitted activation curve with a large enough effect in the main read-out, with a control signal flat (not every such curve was filed as active); inconclusive = small, poorly fitted or top-dose-only effect, or effect the other way, or a change in a side signal; inactive = flat fitted curve, though single readings scatter. Potency is read from the fitted curve at half-maximal effect; tags tell the direction and shape of the fitted curve.",
  "data": [
    {"molecular_target": "3',5'-cyclic-AMP phosphodiesterase 4B (Homo sapiens) (UniProt Q07343)", "sequence (Q07343 whole entry, looked up)": "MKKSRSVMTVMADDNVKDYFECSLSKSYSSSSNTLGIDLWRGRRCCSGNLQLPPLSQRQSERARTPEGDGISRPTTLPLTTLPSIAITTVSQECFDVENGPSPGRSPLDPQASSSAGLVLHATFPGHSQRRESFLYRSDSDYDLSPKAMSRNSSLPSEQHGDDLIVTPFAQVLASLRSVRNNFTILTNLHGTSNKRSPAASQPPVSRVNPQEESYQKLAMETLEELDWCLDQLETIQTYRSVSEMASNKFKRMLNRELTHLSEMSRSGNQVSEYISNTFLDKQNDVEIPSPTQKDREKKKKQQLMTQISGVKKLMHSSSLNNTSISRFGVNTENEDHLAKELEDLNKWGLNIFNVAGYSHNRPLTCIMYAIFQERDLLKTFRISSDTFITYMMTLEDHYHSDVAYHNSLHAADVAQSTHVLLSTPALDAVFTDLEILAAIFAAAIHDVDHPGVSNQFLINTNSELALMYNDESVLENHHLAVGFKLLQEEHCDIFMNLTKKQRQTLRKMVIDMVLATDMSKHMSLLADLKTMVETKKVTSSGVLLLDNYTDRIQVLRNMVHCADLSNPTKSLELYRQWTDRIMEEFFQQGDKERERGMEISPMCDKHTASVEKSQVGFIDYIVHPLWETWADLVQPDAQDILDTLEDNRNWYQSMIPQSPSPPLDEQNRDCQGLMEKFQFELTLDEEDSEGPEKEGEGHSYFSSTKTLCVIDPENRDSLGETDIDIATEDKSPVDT", "assay": "qHTS Assay for Inhibitors of PDE-IV (AID 607)", "settings": "HEK293 ACTOne CNG channel cells, membrane potential fluorescence; series mostly up to 22.9 µM", "in_short": "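HEK293 ACTOne cells with CNG channel (1000/well), endogenous PDE4; membrane potential dye, compounds up to 22.9 uM final. Fluorescence Ex 535/Em 590; RO 20-1724 (100 uM final) as reference.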", "values": [
      {"smiles": "CCn1cc(C(=O)O)c(=O)c2cnc(N3CCCC3)nc21", "Potency": "inactive"},
      {"smiles": "CN(C)CCCN1c2ccccc2C(C)(C)c2ccccc21", "Potency": "inactive"},
      {"smiles": "CC(C)C[C@H](NC(=O)[C@@H](O)[C@H](N)Cc1ccccc1)C(=O)O", "Potency": "inconclusive: 19 µM [inhibitor, single point]"},
      {"smiles": "Cc1cccc(C)c1NC(=O)CN1CCN(CCCC(c2ccc(F)cc2)c2ccc(F)cc2)CC1", "Potency": "inconclusive: 12 µM [activator, partial curve, poor fit]"},
      {"smiles": "CCCCOc1cc(C(=O)NCCN(CC)CC)c2ccccc2n1", "Potency": "inconclusive: 9.51 µM [activator, partial curve, poor fit]"},
      {"smiles": "CCN1CCC[C@H]1CNC(=O)c1c(OC)ccc(Br)c1OC", "Potency": "inconclusive: 12 µM [activator, partial curve, poor fit]"},
      {"smiles": "CCCCCCCCCCCCCCCC[N+](C)(C)CCN(Cc1ccc(OC)cc1)c1ncccn1", "Potency": "inconclusive: 15.1 µM [activator, single point]"},
      {"smiles": "CN(C)CC/C=C1\\c2ccccc2Sc2ccc(Cl)cc21", "Potency": "inconclusive: 7.55 µM [activator, partial curve]"},
      {"smiles": "CN(C)CCCOc1nn(Cc2ccccc2)c2ccccc12", "Potency": "inconclusive: 15.1 µM [activator, partial curve]"},
      {"smiles": "COc1c(C)c2c(c(O)c1C/C=C(\\C)CCC(=O)O)C(=O)OC2", "Potency": "inactive"},
      {"smiles": "COc1ccc(CCN2CCC(Nc3nc4ccccc4n3Cc3ccc(F)cc3)CC2)cc1", "Potency": "inconclusive: 9.51 µM [activator, partial curve]"},
      {"smiles": "O=C1CSC2(CCN(CCCN3c4ccccc4Sc4ccc(Cl)cc43)CC2)N1", "Potency": "inactive"},
      {"smiles": "CC(C)(C(=O)c1cccnc1)c1cccnc1", "Potency": "inactive"},
      {"smiles": "CC[N+](CC)(CCNC(=O)C(=O)NCC[N+](CC)(CC)Cc1ccccc1Cl)Cc1ccccc1Cl", "Potency": "inconclusive: 15.1 µM [inhibitor, single point]"},
      {"smiles": "CNCCC=C1c2ccccc2CCc2ccccc21", "Potency": "inconclusive: 9.51 µM [activator, partial curve]"},
      {"smiles": "NC(=O)c1cccc(N)c1", "Potency": "inconclusive: 15.1 µM [inhibitor, single point]"},
      {"smiles": "COc1c2occc2c(OC)c2c(=O)cc(C)oc12", "Potency": "inconclusive: 19 µM [activator, partial curve, poor fit]"},
      {"smiles": "CCCCOc1ccc(C(=O)CCN2CCCCC2)cc1", "Potency": "inconclusive: 9.51 µM [activator, partial curve]"},
      {"smiles": "O=S1(=O)OC(c2ccc(O)cc2)(c2ccc(O)cc2)c2ccccc21", "Potency": "inactive"},
      {"smiles": "COCC(=O)O[C@]1(CCN(C)CCCc2nc3ccccc3[nH]2)CCc2cc(F)ccc2[C@@H]1C(C)C", "Potency": "inactive"},
      {"smiles": "CCOc1ccc(Cc2nccc3cc(OCC)c(OCC)cc23)cc1OCC", "Potency": "inconclusive: 15.1 µM [activator, partial curve]"},
      {"smiles": "CCCCCCC[N+](CC)(CC)CCCCc1ccc(Cl)cc1", "Potency": "inconclusive: 15.1 µM [activator, partial curve]"},
      {"smiles": "CN1CCc2c(c3ccccc3n2Cc2ccccc2)C1", "Potency": "inconclusive: 7.55 µM [activator, partial curve]"},
      {"smiles": "O=C1c2ccccc2S(=O)(=O)N1CCCCN1CCN(c2ncccn2)CC1", "Potency": "inconclusive: 19 µM [inhibitor, single point]"},
      {"smiles": "CN1CCN(CCC=C2c3ccccc3Sc3ccc(S(=O)(=O)N(C)C)cc32)CC1", "Potency": "inconclusive: 10 µM [activator, partial curve]"},
      {"smiles": "CC(=O)c1ccc2c(c1)N(CCCN1CCC(CCO)CC1)c1ccccc1S2", "Potency": "inactive"},
      {"smiles": "O=C(O)Cc1nn(Cc2ccc(Br)cc2F)c(=O)c2ccccc12", "Potency": "inconclusive: 15.1 µM [activator, partial curve]"},
      {"smiles": "CC(=O)Oc1ccc(C(c2ccc(OC(C)=O)cc2)c2ccccn2)cc1", "Potency": "inconclusive: 7.55 µM [rising, partial curve]"},
      {"smiles": "CC(C)(Sc1cc(C(C)(C)C)c(O)c(C(C)(C)C)c1)Sc1cc(C(C)(C)C)c(O)c(C(C)(C)C)c1", "Potency": "inactive"}
    ]}
  ]
}
